One assay deals with HSkMC. In words: cytotoxicity call (relative viability < 0.9). As to conditions: 10 µM.
The next assay relates to HepG2. Put plainly: cytotoxicity call (relative viability < 0.9). As to conditions: 10 µM.
A further assay relates to S. aureus RN4220. In words: growth inhibition call (relative growth <= 0.2). As to conditions: 50 µM.

SMILES strings stand for the structures. The list shows a part of the results.

Consider `COCC(=O)N(C)C[C@@H]1Oc2cc(C#C[C@H](C)O)ccc2S(=O)(=O)N([C@H](C)CO)C[C@H]1C`, for which the cytotoxicity call with HSkMC and in the assay with HepG2 was “inactive” each time. In the assay on S. aureus RN4220, the growth inhibition call is “inactive”.

As for `C[C@@H]1CCCCO[C@H](CN(C)C(=O)Nc2ccc(C(F)(F)F)cc2)[C@@H](C)CN([C@H](C)CO)C(=O)c2cc(NS(C)(=O)=O)ccc2O1`, the cytotoxicity call in the assay on HSkMC and in the assay on HepG2 was “inactive” in each case. The growth inhibition call with S. aureus RN4220 is “inactive”.

As to `C[C@H](O)C#Cc1ccc2c(c1)O[C@H](CN(C)C(=O)C1CCCCC1)[C@@H](C)CN([C@H](C)CO)S2(=O)=O`, the cytotoxicity call in the assay with HSkMC and with HepG2 was “inactive” each time. The growth inhibition call with S. aureus RN4220 was “inactive”.

`N#CC1C(=O)NC(=O)N=C1Nc1ccccc1` (stereo not drawn): the cytotoxicity call in the assay with HSkMC and in the assay on HepG2 was “inactive” in each case. In addition, the growth inhibition call with S. aureus RN4220 was “inactive”.

For `C[C@H]1CN([C@@H](C)CO)C(=O)Cc2cc(NS(=O)(=O)c3cn(C)cn3)ccc2O[C@@H]1CN(C)S(=O)(=O)c1cn(C)cn1`, the cytotoxicity call in the assay with HSkMC and with HepG2 was “inactive” throughout. Also, the growth inhibition call in the assay with S. aureus RN4220 is “inactive”.

In the case of `O=C(C[C@@H]1CC[C@H]2[C@@H](COC[C@@H](O)CN2C(=O)c2ccc3c(c2)OCO3)O1)NC1Cc2ccccc2C1`, the cytotoxicity call with HSkMC and with HepG2 was “inactive” in each case. In addition, the growth inhibition call in the assay with S. aureus RN4220 is “inactive”.

As to `C[C@H]1CN([C@@H](C)CO)C(=O)c2cc(NC(=O)Cn3cnnn3)ccc2O[C@H]1CN(C)Cc1ccc(-c2ccccc2)cc1`, the cytotoxicity call in the assay on HSkMC and in the assay on HepG2 was “inactive” each time. The growth inhibition call in the assay with S. aureus RN4220 is “inactive”.

On to `COc1ccc([Si](C)(C)[C@@H]2[C@@H](CCn3cc([C@H](O)c4ccccc4)nn3)O[C@]3(C(=O)N(Cc4cccc(N5C(=O)c6cccc7cccc5c67)c4)c4ccccc43)[C@H]2C)cc1`, for which the cytotoxicity call with HSkMC and in the assay with HepG2 was “inactive” each time. Further, the growth inhibition call in the assay on S. aureus RN4220 was “inactive”.

Turning to `NNC(=O)c1cc2ccccc2[nH]1`, the cytotoxicity call in the assay with HSkMC and in the assay on HepG2 was “inactive” in each case. Moreover, the growth inhibition call in the assay on S. aureus RN4220 was “inactive”.

Consider `C[C@@H]1CCCCO[C@@H](CN(C)S(=O)(=O)c2ccc(F)cc2)[C@H](C)CN([C@H](C)CO)C(=O)c2cc(NS(=O)(=O)c3cn(C)cn3)ccc2O1`, for which the cytotoxicity call in the assay with HSkMC and in the assay on HepG2 was “inactive” throughout. Moreover, the growth inhibition call in the assay on S. aureus RN4220 was “inactive”.

For the molecule `O=C(O)[C@H]1CCCNC1`, the cytotoxicity call with HSkMC and in the assay on HepG2 was “inactive” each time. For the same molecule, the growth inhibition call in the assay with S. aureus RN4220 is “inactive”.

Take `Cc1ccc(S(=O)(=O)N(C)C[C@@H]2Oc3ccc(NC(=O)c4ccncc4)cc3CC(=O)N([C@@H](C)CO)C[C@H]2C)cc1`: the cytotoxicity call in the assay with HSkMC and in the assay with HepG2 was “inactive” in each case. The growth inhibition call in the assay on S. aureus RN4220 was “inactive”.

For `C[C@H](CO)N1C[C@H](C)[C@@H](CN(C)S(=O)(=O)c2cn(C)cn2)Oc2ccc(NC(=O)CCCCCC(=O)Nc3ccccc3N)cc2C1=O`, the cytotoxicity call in the assay with HSkMC and in the assay with HepG2 was “inactive” each time. Also, in the assay on S. aureus RN4220, the growth inhibition call was “inactive”.

Regarding `CO[C@@H]1CN(C)C(=O)c2cc(NC(=O)CC(F)(F)F)ccc2OC[C@H](C)N(C(=O)C2CCOCC2)C[C@H]1C`, the cytotoxicity call with HSkMC and in the assay with HepG2 was “inactive” throughout. Moreover, in the assay on S. aureus RN4220, the growth inhibition call is “inactive”.

`C[C@H](CO)N1C[C@H](C)[C@H](CN(C)Cc2ccc(C(=O)O)cc2)OCCCC[C@H](C)Oc2ccc(NC(=O)Cc3ccccc3)cc2C1=O`: the cytotoxicity call in the assay on HSkMC and in the assay with HepG2 was “inactive” in each case. In addition, the growth inhibition call with S. aureus RN4220 was “inactive”.

With `Fc1cnc(N2C[C@H]3COC[C@@H]3C2)nc1`, the cytotoxicity call with HSkMC and in the assay on HepG2 was “inactive” in each case. Further, the growth inhibition call with S. aureus RN4220 is “inactive”.

As for `COc1ccc(NC(=O)N(C)C[C@@H]2Oc3c(NC(=O)c4cnccn4)cccc3C(=O)N([C@H](C)CO)C[C@H]2C)cc1`, the cytotoxicity call in the assay with HSkMC and in the assay on HepG2 was “inactive” in each case. In the assay on S. aureus RN4220, the growth inhibition call is “inactive”.

As to `Nc1ncn([C@@H]2C[C@H](O)[C@@H](CO)O2)c(=O)n1`, the cytotoxicity call in the assay with HSkMC and in the assay on HepG2 was “inactive” throughout. For the same molecule, the growth inhibition call in the assay with S. aureus RN4220 was “inactive”.

Regarding `C[C@@H]1CN([C@H](C)CO)C(=O)c2cccc(NC(=O)c3cnccn3)c2O[C@@H]1CN(C)S(C)(=O)=O`, the cytotoxicity call in the assay on HSkMC and with HepG2 was “inactive” each time. For the same molecule, the growth inhibition call with S. aureus RN4220 is “inactive”.

For the molecule `C[C@@H]1CN([C@H](C)CO)C(=O)c2cc(NC(=O)Nc3cccc4ccccc34)ccc2O[C@@H](C)CCCCO[C@H]1CN(C)C`, the cytotoxicity call in the assay with HSkMC and in the assay with HepG2 was “inactive” throughout. In addition, in the assay on S. aureus RN4220, the growth inhibition call is “inactive”.

For `Cc1noc(C)c1S(=O)(=O)Nc1ccc2c(c1)C(=O)N([C@@H](C)CO)C[C@H](C)[C@H](CN(C)S(=O)(=O)c1ccc(F)cc1)O2`, the cytotoxicity call with HSkMC and with HepG2 was “inactive” each time. Also, the growth inhibition call in the assay on S. aureus RN4220 was “inactive”.

Take `CN(C)C1CCN(C(=O)c2cnc(-c3noc4cc(-c5cccc(C(F)(F)F)c5)ccc34)s2)CC1`: the cytotoxicity call with HSkMC and in the assay on HepG2 was “active” in each case. Moreover, the growth inhibition call in the assay on S. aureus RN4220 is “inactive”.

On to `C[C@@H]1CN([C@@H](C)CO)C(=O)c2cccc(NC(=O)Nc3ccccc3)c2O[C@H]1CN(C)C(=O)Nc1ccc(C(F)(F)F)cc1`, for which the cytotoxicity call with HSkMC and in the assay on HepG2 was “inactive” throughout. The growth inhibition call in the assay on S. aureus RN4220 is “inactive”.

In the case of `C[C@H]1CN([C@@H](C)CO)C(=O)Cc2cc(NC(=O)Nc3cccc4ccccc34)ccc2O[C@@H]1CN(C)Cc1ccc(Cl)c(Cl)c1`, the cytotoxicity call with HSkMC and with HepG2 was “inactive” each time. Also, in the assay on S. aureus RN4220, the growth inhibition call is “inactive”.

Consider `COc1ccc(S(=O)(=O)N(C)C[C@@H]2OCCCC[C@H](C)Oc3ccc(NC(=O)NC4CCCCC4)cc3C(=O)N([C@@H](C)CO)C[C@@H]2C)cc1`, for which the cytotoxicity call in the assay with HSkMC and in the assay with HepG2 was “inactive” in each case. The growth inhibition call in the assay on S. aureus RN4220 is “inactive”.

On to `Cc1cc(O)cc(C)c1Cl`, for which the cytotoxicity call in the assay with HSkMC was “inactive”. For the same molecule, the cytotoxicity call in the assay with HepG2 was “active”. In addition, the growth inhibition call with S. aureus RN4220 is “inactive”.

As to `C[C@H]1CN([C@@H](C)CO)C(=O)c2cc(NC(=O)Nc3ccc(F)cc3)ccc2O[C@H]1CN(C)Cc1ccc(Oc2ccccc2)cc1`, the cytotoxicity call in the assay on HSkMC and in the assay on HepG2 was “inactive” each time. The growth inhibition call in the assay on S. aureus RN4220 was “inactive”.

`CC(C)N1C[C@@H](C)[C@H](CN(C)Cc2ccc(Oc3ccccc3)cc2)Oc2c(C(=O)O)cccc2C1=O`: the cytotoxicity call with HSkMC and in the assay on HepG2 was “inactive” throughout. Further, in the assay on S. aureus RN4220, the growth inhibition call was “inactive”.

On to `C[C@@H]1CN([C@H](C)CO)C(=O)c2cccc(NC(=O)Nc3ccc(F)cc3)c2O[C@H]1CN(C)Cc1ccc(-c2ccccc2)cc1`, for which the cytotoxicity call in the assay with HSkMC was “inactive”. For the same molecule, the cytotoxicity call in the assay on HepG2 was “active”. Besides, the growth inhibition call in the assay on S. aureus RN4220 was “inactive”.

On to `Cc1noc(C)c1S(=O)(=O)N(C)C[C@H]1OCCCC[C@@H](C)Oc2ccc(NC(=O)Nc3ccccc3)cc2C(=O)N([C@@H](C)CO)C[C@H]1C`, for which the cytotoxicity call in the assay with HSkMC and with HepG2 was “inactive” throughout. The growth inhibition call in the assay with S. aureus RN4220 is “inactive”.

Regarding `C[C@@H]1CN([C@@H](C)CO)C(=O)Cc2cc(NS(=O)(=O)c3ccccc3)ccc2O[C@H]1CN(C)S(=O)(=O)c1cccs1`, the cytotoxicity call with HSkMC and in the assay on HepG2 was “inactive” throughout. Also, in the assay with S. aureus RN4220, the growth inhibition call is “inactive”.

Regarding `C[C@@H]1CN([C@H](C)CO)C(=O)c2cccc(NS(C)(=O)=O)c2O[C@@H]1CN(C)S(=O)(=O)c1cn(C)cn1`, the cytotoxicity call in the assay on HSkMC and in the assay with HepG2 was “inactive” throughout. The growth inhibition call in the assay on S. aureus RN4220 is “inactive”.

With `Cc1ccnc2c1NC(=O)c1cccnc1N2C1CC1`, the cytotoxicity call in the assay with HSkMC and in the assay on HepG2 was “inactive” throughout. The growth inhibition call in the assay on S. aureus RN4220 was “inactive”.

On to `C[C@@H]1CN([C@H](C)CO)C(=O)CCCn2cc(nn2)CO[C@@H]1CN(C)C(=O)Nc1ccc(N2CCN(C)CC2)cc1`, for which the cytotoxicity call with HSkMC and in the assay on HepG2 was “inactive” in each case. For the same molecule, the growth inhibition call in the assay on S. aureus RN4220 was “inactive”.

With `C[C@H]1CN([C@@H](C)CO)C(=O)Cc2cc(NC(=O)CCCN(C)C)ccc2O[C@@H]1CN(C)S(C)(=O)=O`, the cytotoxicity call in the assay on HSkMC and in the assay with HepG2 was “inactive” in each case. In addition, the growth inhibition call with S. aureus RN4220 is “inactive”.

Turning to `Cc1ccc(-n2nnc(C(N)=O)c2C)cc1`, the cytotoxicity call with HSkMC and in the assay with HepG2 was “inactive” each time. In the assay on S. aureus RN4220, the growth inhibition call was “inactive”.

On to `C[C@H](CO)N1C[C@H](C)[C@H](CN(C)S(=O)(=O)c2cn(C)cn2)Oc2ccc(NC(=O)Cn3cnnn3)cc2CC1=O`, for which the cytotoxicity call in the assay on HSkMC and with HepG2 was “inactive” each time. Moreover, the growth inhibition call in the assay on S. aureus RN4220 is “inactive”.

In the case of `C[C@H]1CN([C@@H](C)CO)C(=O)c2c(c3ccccc3n2C)-c2ccccc2CO[C@H]1CN(C)Cc1cccc(F)c1`, the cytotoxicity call with HSkMC and in the assay with HepG2 was “inactive” each time. Further, the growth inhibition call with S. aureus RN4220 is “inactive”.

`Nc1nc(=O)c2ncn(COCCO)c2[nH]1`: the cytotoxicity call with HSkMC and in the assay on HepG2 was “inactive” each time. For the same molecule, in the assay on S. aureus RN4220, the growth inhibition call was “inactive”.

For the molecule `CC(C)NC(=O)Nc1ccc2c(c1)C(=O)N([C@@H](C)CO)C[C@@H](C)[C@@H](CN(C)S(=O)(=O)c1cccs1)O2`, the cytotoxicity call with HSkMC and in the assay with HepG2 was “inactive” each time. Moreover, the growth inhibition call in the assay with S. aureus RN4220 is “inactive”.

As to `Cc1noc(C)c1NC(=O)N(C)C[C@@H]1Oc2c(NC(=O)C3CCOCC3)cccc2C(=O)N([C@H](C)CO)C[C@@H]1C`, the cytotoxicity call in the assay on HSkMC (human skeletal muscle cells) and in the assay on HepG2 was “inactive” in each case. Moreover, the growth inhibition call in the assay on S. aureus RN4220 was “inactive”.

The record behind these values is the antibiotic and cytotoxicity screens of Wong et al. (2023).
